Experimental data from the supplement of paper PMC11417369.
This is one part of the list.

system: PfAP2-HC AP2 domain (GST-tagged); test: gcPBM binding intensity (ln(normalized median fluorescence intensity)); higher = stronger DNA binding
Summary of the method: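 GST-fused DNA-binding domains of P. falciparum, expressed in E. coli, were applied at about 25 μg on average for 1 h to an Agilent 4 × 180k array of primer-extended double-stranded 36-bp intergenic genomic probes and negative controls. Binding intensity is the highest Masliner-normalised natural-log median intensity across replicate spots of either probe orientation, measured with Alexa488 anti-GST antibody and a 488 nm scan.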

| Sequence | gcPBM binding intensity (ln) |
| --- | --- |
| TATAAATATAAATACACACACATATATATTATATAT [CACACA_site4496] | 10.1 |
| TATATATATATATGTTGTACATATTTAAATGTTTAT [XGTACX_site5437] | 9.55 |
| ATATATATATATATGTGTACATAATAACTTTGCTTA [XGTACX_site1255] | 9.97 |
| ACCTATTTCAAACACACACACACACTAGCAAACATA [CACACA_site4695] | 10.9 |
| CTTATTTCCTTTTGTAGTACCTTATAATATATATAA [XGTACX_site8873] | 9.64 |
| TAATAATAGTACTCACATCAAAGTATTATTAAAAAT [TGCATGCA_negctrl_site496] | 9.61 |
| TTCTATTTGTAAAATTGTACAAAATAAATAACAAAA [XGTACX_site1007] | 9.44 |
| GCATTTCTACTAAAAATACACACGATGATACAACGA [CACACA_site1756] | 9.63 |
| TTATATATTTTTTGCACACCAAAAAAGAGAATATTC [CACACA_site2730] | 9.63 |
| GGGAAGTAGTAGTAATGTACTTATTTATTATGTGAC [XGTACX_site3985] | 9.61 |
| AATTAAATTATAAGCACACACATATATATATATATA [CACACA_site3351] | 9.82 |
| CCACGTATAATATGTACACACACATAAATACAAAAA [CACACA_site4660] | 10.5 |
| TAAAAAATGTTATATACACACAGTATAAAAAAAAAT [CACACA_site7808] | 9.93 |
| AATATTCACATTTGTTGTACATTCCTAGTTATATAA [XGTACX_site491] | 9.74 |
| TAAATATATAATTGTAGTACTGTTTTATGTTCATAA [XGTACX_site1020] | 9.53 |
| AAAAAATTTCAAATAACACACACTAATATATATATG [CACACA_site1426] | 10.3 |
| TAAACAGATATATTTTGTACATATTGTATATTTTGT [XGTACX_site713] | 9.69 |
| AAGGAAAATTTTTGGTGTACACAAAAAAATCCAAAA [XGTACX_site3596] | 9.71 |
| ACACATATGACAAATAGTACATAAATATATAAATAT [XGTACX_site7141] | 9.89 |

| Sequence | gcPBM binding intensity (ln) |
| --- | --- |
| AAATTGTGTTCATCAGCACACACAACATCATGTAAT [CACACA_site8556] | 10.3 |
| TTAATATATTATATTTGTACATATATATATATACAA [XGTACX_site4798] | 9.48 |
| AATAAATCTTTTTGTTGTACTAAAAATATTATTAGC [XGTACX_site3335] | 9.4 |
| CGAAAGAAAAAAAGCACACACAGTTTTGAGCAATGA [CACACA_site2109] | 10.1 |
| ACAAAAAAGTAAAAAGTGCATGTAAAATATAAGTAT [GTGCAC_site9438] | 9.99 |
| AGAAATTAATCGAGGTGTACGTACATCCAAATATAT [XGTACX_site7650] | 9.73 |
| CCATTATATCTAAGTACACACATTAATTTTTTTTTT [CACACA_site6115] | 9.83 |
| TATATATAAATATTCAGTACATAGTGCTATTAAGTG [XGTACX_site1979] | 9.62 |
| ATATATTTAACAAGATGTACAATTTTATAAAAAATA [XGTACX_site2351] | 9.57 |
| AATAGCAATTTGGGGTGTACACACACCTTATTTAAA [XGTACX_site2234] | 9.84 |
| TGAAAAGGAAATTGTTGTACATATGTTTCTTCCTAA [XGTACX_site3932] | 9.53 |
| TTTTTATAAAAAAATAGTACTCGTCTAATCTTATGT [XGTACX_site8532] | 9.47 |
| ATACATCAAGGACACACACACACACGCACACGCACA [CACACA_site6310] | 10.7 |
| AAACTATTCACTATAATACATTAGAAGTGAATAAAA [TGCATGCA_negctrl_site498] | 9.64 |
| TTATGATGGTCTTTATAAGGGCACATTAAATTCGGC [TGCATGCA_negctrl_site166] | 9.35 |
| GAGAAGACATTACACAGTACCCAGTAACTCTACGGA [XGTACX_site2000] | 9.68 |
| GATTATTATGTCCATGCATGTTAATATATATTAATT [TGCATGCA_site837] | 9.87 |
| AAATTGGGGCTTGTTACACACTTAGTGCGAGTTCTA [CACACA_site582] | 9.75 |
| CTGTATAAAACCAATGCATGTAAATATATTAATATA [TGCATGCA_site511] | 9.57 |

| Sequence | gcPBM binding intensity (ln) |
| --- | --- |
| AAAATATATATAAATGCATGCATAATGAAATATATA [TGCATGCA_site39] | 9.92 |
| TTTTAAAAAACAAACACACACGTAGAAAAAAAAAAA [CACACA_site4608] | 10.2 |
| GAAATTTTATTTCGGCGGACAAATGTATACTTTCTT [XGTACX_site4238] | 9.63 |
| CCATTTACATTGTGAAGTACTAAAAAAAAATGTAGA [XGTACX_site7882] | 9.48 |
| ACAAGGAATATAAAAAGTACATAAAATACATAAAAA [XGTACX_site1217] | 9.85 |
| TATGGATGTATTCATACATGCACACGTACATATTTA [TGCATGCA_site991] | 9.73 |
| ATAATTTGATGGTTAACACACATATATATTATATAT [CACACA_site2449] | 9.87 |
| ATATAAATATAAATATATATGTATAAATATAAATAT [CACACA_negctrl_site247] | 9.84 |
| ATATATTATTATAACTGTACTTTTTTTGTGGTTAAT [XGTACX_site8266] | 9.68 |
| TATGCGTATATATAAATACACACCAAATGTTAATAT [CACACA_site1713] | 9.7 |
| ATCATTTTTAAAGGAACACACAAAAAAAGTTATAAT [CACACA_site6761] | 9.71 |
| TATATATATATATATACACACAAAAAAATAAATTCT [CACACA_site98] | 9.94 |
| ATTTATTTTAATAATTGTACATGTTATTTTATATAT [XGTACX_site2667] | 9.81 |
| TACTTTTCATCTTCTTAACACACAAAAAAAAAAAAA [CACACA_site9290] | 9.37 |
| TATATATATATGTGCACACCAATTGTATGTAATATA [CACACA_site3889] | 10 |
| TATTTAATTACATGAACACACATTATATATTTTTAA [CACACA_site5615] | 9.64 |
| TTTATATTATTAGAAACACACATTAGATTAAAATTA [CACACA_site3286] | 9.54 |
| TACATAATAACATGTACACACATTCTTCTATAAATG [CACACA_site4061] | 9.77 |
